Data from the BET-seq Pho4 binding data (Le et al. 2018).
This is one part of the list. The energies were worked out here from pooled read counts, against the library average; single values are noisy.

These sequences were tested against T1, Pho4 (S. cerevisiae) (UniProt P07270) (assay: relative binding free energy (BET-seq); higher = weaker binding). Conditions: reference: library average.
T1 sequence: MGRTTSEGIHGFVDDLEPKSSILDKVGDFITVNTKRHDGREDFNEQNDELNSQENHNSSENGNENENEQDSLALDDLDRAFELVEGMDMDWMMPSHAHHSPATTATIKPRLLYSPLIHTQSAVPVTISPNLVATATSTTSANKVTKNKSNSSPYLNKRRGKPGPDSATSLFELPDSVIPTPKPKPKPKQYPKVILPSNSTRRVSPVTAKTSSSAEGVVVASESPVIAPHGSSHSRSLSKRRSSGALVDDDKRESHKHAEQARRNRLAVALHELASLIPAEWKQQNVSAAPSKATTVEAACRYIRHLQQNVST
With GTAAGCACGTGATGAT the “relative binding free energy” value was 0.19 kcal/mol.
In the case of TTAAGCACGTGGTTAA, the “relative binding free energy” value is reported as -0.23 kcal/mol.
For GTGTTCACGTGTGCCA, the “relative binding free energy” value was 0.44 kcal/mol.
With CTTAGCACGTGTATGT the “relative binding free energy” value was -0.03 kcal/mol.
With TGTTACACGTGGACGT the “relative binding free energy” value was 0.14 kcal/mol.
With GATGGCACGTGTTAGA the “relative binding free energy” value was -0.01 kcal/mol.
With GTAGACACGTGGTTAC the “relative binding free energy” value was 0.2 kcal/mol.
For CTTATCACGTGGTGGC, the “relative binding free energy” value was 0.12 kcal/mol.
AGGGGCACGTGCCATG was tested, and the “relative binding free energy” value was -0.13 kcal/mol.
For CGAGTCACGTGGTTGA, the “relative binding free energy” value was 0.07 kcal/mol.
AGTTTCACGTGGGGGC was tested, and the “relative binding free energy” value was 0.31 kcal/mol.
GATCGCACGTGGGATG was tested, and the “relative binding free energy” value was -0.01 kcal/mol.
With AAGTTCACGTGTGATG the “relative binding free energy” value was 0.38 kcal/mol.
For TCATGCACGTGCTGTT, the “relative binding free energy” value was -0.04 kcal/mol.
In the case of TGGTACACGTGTAAGT, the “relative binding free energy” value is reported as 0.25 kcal/mol.
GTGAGCACGTGAAAGT was tested, and the “relative binding free energy” value was 0.27 kcal/mol.
For AAGCGCACGTGTAGGT, the “relative binding free energy” value was -0.18 kcal/mol.
In the case of TGCTGCACGTGAGTGG, the “relative binding free energy” value is reported as 0.09 kcal/mol.
With AAGTGCACGTGTCGGG the “relative binding free energy” value was -0.04 kcal/mol.
AAGAGCACGTGGGATT was tested, and the “relative binding free energy” value was -0.09 kcal/mol.
In the case of TTGGGCACGTGCTAAT, the “relative binding free energy” value is reported as -0.09 kcal/mol.
TCTATCACGTGGGGGA was tested, and the “relative binding free energy” value was 0 kcal/mol.
With GGACTCACGTGATGGA the “relative binding free energy” value was 0.46 kcal/mol.
For TGGCTCACGTGCTGTG, the “relative binding free energy” value was 0.18 kcal/mol.
For AATGACACGTGTGAGT, the “relative binding free energy” value was 0.05 kcal/mol.
With ATGCGCACGTGACGGG the “relative binding free energy” value was -0.05 kcal/mol.
With ATAAGCACGTGTTGAG the “relative binding free energy” value was -0.03 kcal/mol.
In the case of TGAAGCACGTGGCGAT, the “relative binding free energy” value is reported as 0 kcal/mol.
With GATGTCACGTGGGACG the “relative binding free energy” value was 0.19 kcal/mol.
In the case of TTTTTCACGTGCTGGA, the “relative binding free energy” value is reported as 0.32 kcal/mol.
For ATTTACACGTGGAAGG, the “relative binding free energy” value was 0.12 kcal/mol.
CGAGTCACGTGGCAGG was tested, and the “relative binding free energy” value was 0.05 kcal/mol.
For GCGGTCACGTGGGTGG, the “relative binding free energy” value was 0.03 kcal/mol.
With CAGCGCACGTGATGGG the “relative binding free energy” value was 0.03 kcal/mol.
For GGTGACACGTGCTTGT, the “relative binding free energy” value was -0.07 kcal/mol.
GGGTGCACGTGGCGTA was tested, and the “relative binding free energy” value was -0.03 kcal/mol.
In the case of AGATACACGTGGTGAT, the “relative binding free energy” value is reported as -0.02 kcal/mol.
For ACTCGCACGTGGTGGT, the “relative binding free energy” value was -0.19 kcal/mol.
For TGGATCACGTGAAGAT, the “relative binding free energy” value was 0.32 kcal/mol.
GGGGTCACGTGTTGAA was tested, and the “relative binding free energy” value was 0.31 kcal/mol.
In the case of GGTTACACGTGTTGTT, the “relative binding free energy” value is reported as 0.18 kcal/mol.
With CGGGTCACGTGAGTTC the “relative binding free energy” value was 0.41 kcal/mol.
With TAGTACACGTGTGTCT the “relative binding free energy” value was 0.05 kcal/mol.
ATTAGCACGTGTAAGT was tested, and the “relative binding free energy” value was -0.01 kcal/mol.
For ATACTCACGTGATGTT, the “relative binding free energy” value was 0.37 kcal/mol.
For ATTAACACGTGCGGTT, the “relative binding free energy” value was -0.05 kcal/mol.
In the case of GAGGTCACGTGGACGG, the “relative binding free energy” value is reported as 0.25 kcal/mol.
For TGCGTCACGTGTATAT, the “relative binding free energy” value was -0.01 kcal/mol.
With TGTCTCACGTGGGTTA the “relative binding free energy” value was 0.04 kcal/mol.
GTGGTCACGTGGAGAA was tested, and the “relative binding free energy” value was 0.02 kcal/mol.
With TTTAGCACGTGTTTGG the “relative binding free energy” value was -0.01 kcal/mol.
In the case of ATTCGCACGTGGGTTA, the “relative binding free energy” value is reported as -0.18 kcal/mol.
AGTTTCACGTGAGACT was tested, and the “relative binding free energy” value was 0.41 kcal/mol.
In the case of TGTTTCACGTGTGGCA, the “relative binding free energy” value is reported as 0.46 kcal/mol.
For CAGGTCACGTGATTTG, the “relative binding free energy” value was 0.35 kcal/mol.
With ATTGACACGTGATTAT the “relative binding free energy” value was 0.09 kcal/mol.
In the case of AGTCACACGTGGATGT, the “relative binding free energy” value is reported as 0.19 kcal/mol.
GTATACACGTGTGTGA was tested, and the “relative binding free energy” value was 0.03 kcal/mol.
With ATAGGCACGTGAGGCT the “relative binding free energy” value was 0.11 kcal/mol.
With TTATTCACGTGGTAAT the “relative binding free energy” value was 0.25 kcal/mol.
In the case of TGTGGCACGTGGCTGG, the “relative binding free energy” value is reported as -0.08 kcal/mol.
For GAGCTCACGTGTTGTG, the “relative binding free energy” value was 0.3 kcal/mol.
With GTCATCACGTGGGGCG the “relative binding free energy” value was 0.08 kcal/mol.
For AAGGGCACGTGGCAGT, the “relative binding free energy” value was -0.21 kcal/mol.
With AAGGTCACGTGGACTG the “relative binding free energy” value was 0.12 kcal/mol.
GTAGACACGTGGTACG was tested, and the “relative binding free energy” value was -0.12 kcal/mol.
For TTGGTCACGTGAAGAT, the “relative binding free energy” value was 0.28 kcal/mol.
With CTTGTCACGTGTAAGT the “relative binding free energy” value was 0.06 kcal/mol.
With CCGTTCACGTGTTGGT the “relative binding free energy” value was 0.13 kcal/mol.
ATTCGCACGTGGTATG was tested, and the “relative binding free energy” value was -0.1 kcal/mol.
With TAAGACACGTGGAAGT the “relative binding free energy” value was 0.1 kcal/mol.
With AAGGGCACGTGGTTCA the “relative binding free energy” value was -0.16 kcal/mol.
For CGAGGCACGTGATGAG, the “relative binding free energy” value was -0.02 kcal/mol.
For AGGATCACGTGGCATG, the “relative binding free energy” value was 0.07 kcal/mol.
In the case of GTGCGCACGTGCTGTT, the “relative binding free energy” value is reported as -0.03 kcal/mol.
In the case of GTTTGCACGTGTCCGG, the “relative binding free energy” value is reported as -0.06 kcal/mol.
GGTGTCACGTGAGCAG was tested, and the “relative binding free energy” value was 0.29 kcal/mol.
With AGAATCACGTGATATT the “relative binding free energy” value was 0.22 kcal/mol.
In the case of AATAGCACGTGGATGA, the “relative binding free energy” value is reported as -0.01 kcal/mol.
In the case of ATGGGCACGTGGTGGG, the “relative binding free energy” value is reported as -0.21 kcal/mol.
GAGTGCACGTGCTGGG was tested, and the “relative binding free energy” value was -0.05 kcal/mol.
With GGGGTCACGTGTCAGT the “relative binding free energy” value was 0.12 kcal/mol.
GCGTGCACGTGAAAGT was tested, and the “relative binding free energy” value was 0.32 kcal/mol.
For TTCTTCACGTGAATGG, the “relative binding free energy” value was 0.38 kcal/mol.
GGCGGCACGTGGAATG was tested, and the “relative binding free energy” value was 0.09 kcal/mol.
For AATGGCACGTGGATCG, the “relative binding free energy” value was -0.09 kcal/mol.
AAGGTCACGTGTGAGG was tested, and the “relative binding free energy” value was 0.13 kcal/mol.
In the case of CAAGACACGTGGTGGG, the “relative binding free energy” value is reported as -0.03 kcal/mol.
ATAATCACGTGGGGCT was tested, and the “relative binding free energy” value was -0.07 kcal/mol.
GGATTCACGTGTTGTG was tested, and the “relative binding free energy” value was 0.35 kcal/mol.
For ATCGGCACGTGTTTGC, the “relative binding free energy” value was -0.03 kcal/mol.
For GGTTACACGTGGTTGC, the “relative binding free energy” value was 0.12 kcal/mol.
In the case of TTGCGCACGTGGTGAG, the “relative binding free energy” value is reported as -0.2 kcal/mol.
In the case of GTGGTCACGTGAGGGT, the “relative binding free energy” value is reported as 0.39 kcal/mol.
For TGGATCACGTGGAGCG, the “relative binding free energy” value was 0.12 kcal/mol.
For ATAGTCACGTGGTTTG, the “relative binding free energy” value was 0.05 kcal/mol.
With GTAGACACGTGCGTTT the “relative binding free energy” value was 0.01 kcal/mol.
With CGGTTCACGTGGTAGC the “relative binding free energy” value was 0.27 kcal/mol.
In the case of CAAGACACGTGGGGTG, the “relative binding free energy” value is reported as -0.12 kcal/mol.
In the case of GTAGTCACGTGGACGG, the “relative binding free energy” value is reported as 0.08 kcal/mol.
In the case of CTAGTCACGTGGGGTG, the “relative binding free energy” value is reported as -0.12 kcal/mol.
GGAGACACGTGTGTTA was tested, and the “relative binding free energy” value was -0.01 kcal/mol.
With AGATACACGTGGCGGT the “relative binding free energy” value was -0.06 kcal/mol.
TTTTGCACGTGTATAT was tested, and the “relative binding free energy” value was -0.02 kcal/mol.
With GATTTCACGTGTAGTT the “relative binding free energy” value was 0.26 kcal/mol.
GATGTCACGTGTAAGT was tested, and the “relative binding free energy” value was 0.28 kcal/mol.
For GTGAGCACGTGTGATG, the “relative binding free energy” value was 0.03 kcal/mol.
TTATGCACGTGAAGAT was tested, and the “relative binding free energy” value was 0.17 kcal/mol.
In the case of GGGTGCACGTGAAGAG, the “relative binding free energy” value is reported as 0.44 kcal/mol.
For TGGACCACGTGATGGT, the “relative binding free energy” value was 0 kcal/mol.
CGGGACACGTGGTTAT was tested, and the “relative binding free energy” value was -0.08 kcal/mol.
For GTTCGCACGTGCAGGT, the “relative binding free energy” value was 0.04 kcal/mol.
TGTGGCACGTGGTGAT was tested, and the “relative binding free energy” value was -0.11 kcal/mol.
CAGTTCACGTGTGATT was tested, and the “relative binding free energy” value was 0.23 kcal/mol.
In the case of GGTGGCACGTGTAGTG, the “relative binding free energy” value is reported as 0 kcal/mol.
